# About 14,000 (4.5%) of roughly 310,000 compounds showed an effect of 50% or more. Effects have a minus sign here. Some of the results follow.
# Biological target: human ether-à-go-go-related gene (hERG) potassium channel (human, UniProt Q12809)
# Assay: primary screen, population patch clamp on CHO cells stably expressing hERG
# 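Also: peak tail current of the secondary pulse compared with the same well before compound.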
# Chain of human ether-à-go-go-related gene (hERG) potassium channel (Q12809 whole entry, looked up): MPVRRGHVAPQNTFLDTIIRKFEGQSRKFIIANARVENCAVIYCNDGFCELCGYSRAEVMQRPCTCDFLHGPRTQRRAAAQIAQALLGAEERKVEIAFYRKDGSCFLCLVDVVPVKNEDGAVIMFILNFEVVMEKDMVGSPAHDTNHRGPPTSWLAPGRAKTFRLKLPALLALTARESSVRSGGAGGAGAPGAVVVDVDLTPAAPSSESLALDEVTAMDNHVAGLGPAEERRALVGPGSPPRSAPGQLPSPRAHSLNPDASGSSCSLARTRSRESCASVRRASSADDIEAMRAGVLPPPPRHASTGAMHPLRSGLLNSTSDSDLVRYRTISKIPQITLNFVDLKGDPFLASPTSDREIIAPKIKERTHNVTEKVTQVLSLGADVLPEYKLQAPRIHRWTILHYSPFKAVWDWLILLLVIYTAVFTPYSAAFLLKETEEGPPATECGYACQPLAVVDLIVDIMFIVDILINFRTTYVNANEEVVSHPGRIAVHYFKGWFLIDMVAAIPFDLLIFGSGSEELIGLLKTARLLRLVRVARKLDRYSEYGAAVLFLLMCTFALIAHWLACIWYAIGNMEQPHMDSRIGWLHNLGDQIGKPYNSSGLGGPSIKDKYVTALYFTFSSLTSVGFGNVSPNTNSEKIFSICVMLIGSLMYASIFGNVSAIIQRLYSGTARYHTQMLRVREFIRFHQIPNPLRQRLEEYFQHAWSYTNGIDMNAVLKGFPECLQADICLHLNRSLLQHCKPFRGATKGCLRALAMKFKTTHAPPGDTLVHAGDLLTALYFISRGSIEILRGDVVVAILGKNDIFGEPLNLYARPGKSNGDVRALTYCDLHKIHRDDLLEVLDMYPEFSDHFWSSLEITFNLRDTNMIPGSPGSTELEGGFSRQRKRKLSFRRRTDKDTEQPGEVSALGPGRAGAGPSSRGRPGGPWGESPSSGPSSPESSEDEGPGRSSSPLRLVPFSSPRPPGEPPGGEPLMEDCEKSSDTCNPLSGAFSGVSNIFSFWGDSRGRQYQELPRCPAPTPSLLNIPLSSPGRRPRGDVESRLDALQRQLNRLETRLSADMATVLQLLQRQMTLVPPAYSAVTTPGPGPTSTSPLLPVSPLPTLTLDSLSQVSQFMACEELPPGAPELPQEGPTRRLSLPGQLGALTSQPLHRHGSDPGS
row,Structure (SMILES),"hERG current change (%, negative = inhibition) at 10uM [%]"
1,CC(=O)c1ccc(NC(=O)C(C)NCc2ccccc2Cl)cc1 (centres unmarked),-0.834
2,Cc1nn(-c2ccccc2)c(C)c1/C=C/C(=O)OCC(=O)Nc1ncc(C(F)(F)F)cc1Cl,-12.9
3,O=C(NC(Cc1ccc2c(c1)OCO2)C(=O)N1CCCC1C(=O)O)c1ccccc1 (centres unmarked),3.57
4,COc1cc(/C=N/NC(N)=S)ccc1OC(=O)c1ccc(C)cc1,-2.13
5,CCN(C(=O)CN1C(=O)NC2(CCc3ccccc32)C1=O)C1CCS(=O)(=O)C1 (centres unmarked),10.6
6,COc1ccc(OCCCC(=O)NCC(C)C)cc1,-0.98
7,NNC(=O)c1ccc(CSc2cccc3cccnc23)cc1,11.1
8,Cc1cccc(N2CC(C(=O)Nc3nnc(SCC(=O)Nc4cc(C)on4)s3)CC2=O)c1 (centres unmarked),23
9,COc1ccc(N2CCN(c3ncccc3C#N)CC2)cc1,13.5
10,Cc1ccccc1-c1nnc(SC(C)C(=O)NC2CCCC2)o1 (centres unmarked),-49.4
11,CC(Oc1ccc(NC(=O)c2ccco2)cc1)C(=O)N1c2ccccc2CC1C (centres unmarked),-9.6
12,COc1ccc(C(=O)NCCCNC(=O)c2cnccn2)cc1Br,-0.353
13,CCc1ccccc1NC(=O)CCS(=O)(=O)c1ccc(C)cc1,8.96
14,COc1ccc(C(=S)N2CCCCCC2)cc1,2.63
15,CC(=O)OCC1CCCC2=C(C)C(=O)CCC21COC(C)=O (centres unmarked),-31.9
16,O=C(NNC(=O)c1ccccc1C(=O)O)c1cc2ccccc2o1,7.87
17,CCOC(=O)N1CCC(NC(=O)C2CCN(S(=O)(=O)N3CCCC3)CC2)CC1,10.9
18,N#Cc1ccc(OCc2noc(-c3ccsc3)n2)cc1,8.51
19,O=C(NC1CCN(c2ncccn2)CC1)c1ccccc1Cl,20.4

row,Structure (SMILES),"hERG current change (%, negative = inhibition) at 10uM [%]"
1,COc1cccc(-c2cc(C(=O)O)[nH]n2)c1,17.5
2,O=C(O)C1CC(O)CN1C(=O)c1ccco1 (centres unmarked),18.8
3,O=C(Nc1nnc(C2=COCCO2)o1)C1CCCCC1,-0.233
4,Cc1ccc(S(=O)(=O)NCc2ccc(C(=O)N3CCN(Cc4ccccc4)CC3)cc2)cc1,-14.4
5,O=C(CN1CCN(C(c2ccccc2)c2ccccc2)CC1)Nc1ccc(N2CCOCC2)cc1,7.76
6,CCCCCCn1c(CN2CCN(CCO)CC2)nc2c1c(=O)n(C)c(=O)n2C,-38.3
7,Cc1ccnc(NC(=O)CCc2c(C)nc3ncnn3c2C)c1,-11.6
8,COc1ccc(N/C=C/C(=O)c2sc(-c3ccccc3)nc2C)cc1,14.4
9,CCCNC(=O)Cc1cc(=O)[nH]c(=O)[nH]1,16
10,C=CCN1C(=O)C(CC(=O)Nc2ccc(OCCC)cc2)N(CCCN2CCN(Cc3ccccc3)CC2)C1=S (centres unmarked),-38.7
11,COc1ccc(-c2nnc(SCC(=O)Nc3ncc(C)s3)n2-c2ccccc2)cc1OC,-12.8
12,Cc1cccc(NC(=O)/C(=C\c2cccs2)NC(=O)c2ccccc2)c1,-51.7
13,Cc1ccccc1-n1c(=O)/c(=C\c2ccco2)s/c1=C(/C#N)C(=O)Nc1ccccc1,1.12
14,CC(C)(C)C(=O)N1CCC(O)(CS(=O)(=O)Cc2ccccc2)CC1,19.9
15,COC(=O)C1CCN(C(c2ccc(OC)c(OC)c2)c2sc3nc(C)nn3c2O)CC1 (centres unmarked),-8.73
16,O=C(O)Cc1ccc2oc(-c3cccnc3)nc2c1,19.3
17,COCCN(Cc1cc2cc(C)c(C)cc2nc1Cl)C(=O)N1CCOCC1,5.05
18,CC(=O)C1=C(O)C(=O)N(CCC(=O)O)C1c1ccc(Cl)cc1Cl (centres unmarked),17.9
19,CC1CCC(NC(=O)c2ccc(NC(=O)CC3SC(N4CCCC4)=NC3=O)cc2)CC1 (centres unmarked),13.9

row,Structure (SMILES),"hERG current change (%, negative = inhibition) at 10uM [%]"
1,CCOC(=O)C1CCCN(C(=O)c2ccc(C)cc2O)C1 (centres unmarked),-0.613
2,CC(Oc1ccc(C(C)(C)C)cc1)c1ccnc2nc(/N=C/N(C)C)nn12 (centres unmarked),-26.1
3,O=C(NC(=O)N1CCN(c2ccccc2)CC1)c1ccc(Cl)cc1,-6.41
4,COc1cc(C2/C(=C(\O)c3ccc4c(c3)OCCO4)C(=O)C(=O)N2Cc2ccco2)ccc1O (centres unmarked),17.6
5,Cc1nc2sccn2c(=O)c1S(=O)(=O)NCCc1ccccc1,-21.5
6,O=C(CSc1nnc(-c2ccco2)n1-c1ccccc1)N1CCN(C(=O)c2ccco2)CC1,-30.6
7,CCN(CC)S(=O)(=O)c1ccc(N2CCOCC2)c(NC(=O)COc2ccc(OC)cc2)c1,-27.6
8,Cc1cc(C(=O)Nn2cnnc2)ccc1[N+](=O)[O-],9.98
9,COc1cc(C=C2C(=O)NC(=O)NC2=O)ccc1OS(=O)(=O)c1ccccc1[N+](=O)[O-],13.3
10,NS(=O)(=O)c1ccc(CNC(=O)C23CC4CC(CC(C4)C2)C3)cc1,8.69
11,O=C(O)c1ccccc1SCc1ccc2c(c1)OCO2,0.469
12,CN1C(=O)c2ccc(C(=O)Nc3cccnc3)cc2C1=O,13.3
13,Cc1ccc(NC(=S)N2CCC(c3ccccc3)C2)c(Cl)c1 (centres unmarked),-2.77
14,Cc1cc(C)nc(Nc2nc(C)c3cc4c(cc3n2)OCO4)n1,-3.78
15,Cc1ccnc(NS(=O)(=O)c2ccc(NC(=O)c3c(-c4ccccc4Cl)noc3C)cc2)n1,14.4
16,O=c1ncn(-c2ccc(F)cc2)c2ncccc12,-7.49
17,NC(N)=Nc1nc(-c2ccccc2)c2cc(F)ccc2n1,-66.2
18,Cc1cc2nc(-c3ccc(SCC(=O)NC(C)C)nc3)[nH]c2cc1C,5.39

# — article PMC4336329 (PLoS ONE, 2015)
